Laboratory results: the supplement of paper PMC12217912
The other results are listed elsewhere or left out. The full chains were built here from the parent and the listed change. Values near 0.05 are background.

B1: TEV protease; numbered along this chain (parent)
chain: MGESLFKGPRDYNPISSSICHLTNESDGHTTSLYGIGFGPFIITNKHLFRRNNGTLVVQSLHGVFKVKDTTTLQQHLVDGRDMIIIRMPKDFPPFPQKLKFREPQREERICLVTTNFQTKSMSSMVSDTSCTFPSGDGIFWKHWIQTKDGQCGSPLVSTRDGFIVGIHSASNFTNTNNYFTSVPKNFMELLTNQEAQQWVSGWRLNADSVLWGGHKVFMVKPEEPFQPVKEATQL

Variants of: B1
Assay: raw area under fraction-flipped curve 0-4 h after induction (AUC4h, not background-subtracted), DNA-recorder readout of cleavage of the substrate (dimensionless); higher = more cleavage of the substrate by the protease variant
Details: temperature: 34 °C; time window: 0-4 h after rhamnose induction
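Also: Bxb1 expression induced with 0.2% (w/v) L-rhamnose at OD600 near 0.5, cultures sampled hourly, flipped fraction per protease–substrate barcode pair counted by paired-end Illumina sequencing.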

| Variant | area with substrate ENLYFQC | area with substrate ENLYFQG | area with substrate ENLYFQL | area with substrate ENLYFQR | area with substrate ENLYFQS | area with substrate ENLYFQH | area with substrate ENLYFQI | area with substrate ENLYFQK | area with substrate ENLYFQM | area with substrate ENLYFQN |
| --- | --- | --- | --- | --- | --- | --- | --- | --- | --- | --- |
| K221A | 0.1 | 0.0924 | 0.0448 | 0.0638 | 0.0953 | – | – | – | – | – |
| P222R | 0.0943 | 0.089 | 0.061 | 0.0637 | 0.0895 | 0.0829 | 0.0549 | 0.0852 | 0.0858 | 0.0638 |
| Q227N | 0.0806 | 0.112 | 0.0641 | 0.0594 | 0.11 | 0.0683 | 0.0566 | 0.0744 | 0.0805 | – |
| Q227R | 0.103 | 0.0746 | – | – | 0.101 | – | 0.0728 | 0.0653 | – | 0.0901 |
| P228A | 0.098 | 0.0931 | 0.0703 | 0.0519 | 0.102 | 0.0899 | – | 0.0587 | 0.0884 | 0.0682 |
| P228E | 0.116 | – | 0.0617 | – | 0.106 | – | – | 0.0657 | – | – |
| Q234M | 0.123 | 0.0432 | 0.095 | – | 0.0919 | 0.0785 | – | 0.0655 | 0.0787 | 0.0565 |
| G35Q | – | 0.0506 | 0.0387 | – | 0.0452 | 0.0631 | 0.0401 | – | 0.0398 | 0.0559 |
| V57A | – | 0.101 | 0.0206 | 0.0658 | 0.104 | 0.0731 | – | 0.0504 | – | 0.0747 |
| V58T | – | – | 0.0516 | 0.0564 | 0.106 | – | – | – | – | – |
| T71H | – | 0.0739 | 0.0647 | 0.0815 | 0.0895 | – | 0.055 | 0.0479 | – | 0.0625 |
| T71Y | – | 0.0868 | – | 0.0651 | 0.081 | 0.0737 | – | 0.0744 | – | 0.0515 |
| V78T | – | 0.0743 | 0.0544 | 0.0593 | 0.0897 | – | 0.0553 | – | – | – |
| M83V | – | – | 0.0688 | – | 0.0716 | – | – | – | – | – |
| F101Y | – | – | 0.0489 | 0.0483 | 0.0817 | 0.101 | – | – | – | – |
| T115V | – | 0.0939 | – | 0.0546 | 0.101 | – | – | – | 0.0944 | – |
| M122G | – | 0.098 | 0.0541 | 0.075 | 0.103 | – | – | – | 0.073 | – |
| I139E | – | – | – | – | 0.106 | 0.0757 | 0.0678 | 0.0736 | 0.0952 | – |
| I139L | – | 0.0927 | 0.0603 | 0.0601 | 0.115 | – | – | 0.0588 | 0.0901 | 0.0885 |

| Variant | area with substrate ENLYFQC | area with substrate ENLYFQG | area with substrate ENLYFQL | area with substrate ENLYFQR | area with substrate ENLYFQS | area with substrate ENLYFQH | area with substrate ENLYFQI | area with substrate ENLYFQK | area with substrate ENLYFQM | area with substrate ENLYFQN |
| --- | --- | --- | --- | --- | --- | --- | --- | --- | --- | --- |
| H143M | – | 0.0743 | 0.0614 | 0.0648 | 0.0745 | – | 0.0584 | 0.0657 | 0.0374 | – |
| V157I | – | 0.11 | 0.0757 | 0.0494 | 0.0979 | 0.089 | – | 0.0521 | 0.0891 | 0.0953 |
| T159R | – | – | 0.0459 | – | 0.117 | – | – | 0.0758 | 0.0846 | 0.0846 |
| I164K | – | – | – | – | 0.0538 | – | – | 0.0389 | – | – |
| T174V | – | 0.0691 | – | 0.0523 | 0.0784 | – | – | – | 0.0727 | 0.0605 |
| N178F | – | 0.145 | 0.126 | – | 0.204 | – | – | 0.0836 | – | – |
| N178V | – | – | 0.0583 | 0.0585 | 0.0744 | 0.0234 | – | 0.0551 | – | 0.0609 |
| E189W | – | 0.0859 | – | 0.0543 | 0.106 | – | 0.0434 | – | 0.0933 | 0.0745 |
| N193R | – | – | – | – | 0.0893 | – | – | 0.0632 | – | 0.0793 |
| R204A | – | 0.128 | 0.0579 | 0.0694 | 0.119 | 0.102 | 0.0719 | 0.0746 | 0.102 | 0.0735 |
| F218T | – | 0.0851 | 0.0554 | – | 0.103 | – | – | 0.0542 | – | 0.0791 |
| P225S | – | 0.0888 | – | 0.0575 | 0.108 | 0.0961 | 0.0761 | 0.0587 | – | – |
| F226S | – | 0.0942 | 0.0589 | 0.0648 | 0.108 | – | 0.0531 | 0.0635 | 0.103 | 0.0879 |
| L235I | – | – | 0.0865 | 0.0529 | 0.0994 | – | 0.0682 | 0.0798 | 0.0865 | – |
| L235N | – | 0.0929 | 0.0615 | 0.0509 | 0.103 | 0.0719 | 0.0493 | – | – | 0.0756 |
| K66C | – | – | 0.063 | 0.0731 | 0.11 | – | – | – | 0.101 | 0.0797 |
| P93N | – | – | 0.0572 | 0.0544 | 0.0997 | 0.0917 | – | – | – | – |
| N116M | – | – | – | 0.0562 | 0.1 | 0.0939 | – | – | – | 0.0852 |

Same assay, conditions: temperature: 34 °C; time window: 0-4 h after rhamnose induction

| Variant | area with substrate ENLYFQP | area with substrate ENLYFQT | area with substrate ENLYFQV | area with substrate ENLYFQF | area with substrate ENLYFQW | area with substrate ENLYFQY | area with substrate ENLYFQE | area with substrate ENLYFQD | area with substrate ENLYFQQ |
| --- | --- | --- | --- | --- | --- | --- | --- | --- | --- |
| P222R | 0.064 | 0.0784 | 0.0765 | – | – | – | – | – | – |
| Q227N | – | 0.0738 | – | 0.0874 | – | – | – | – | – |
| Q227R | – | 0.0981 | 0.0674 | – | 0.0527 | 0.04 | – | – | – |
| P228A | – | 0.0693 | – | – | – | 0.0743 | 0.0791 | – | – |
| P228E | 0.046 | – | 0.071 | 0.0428 | – | – | – | 0.0863 | – |
| Q234M | 0.064 | 0.0572 | – | 0.0514 | 0.0949 | – | – | – | – |
| G35Q | – | – | – | – | 0.0458 | – | – | 0.0526 | 0.0367 |
| V57A | 0.0533 | – | 0.0732 | 0.0738 | 0.0625 | – | 0.0709 | 0.0779 | – |
| V58T | – | – | – | – | – | – | – | 0.104 | – |
| T71H | 0.0701 | – | – | – | – | – | – | 0.0757 | – |
| T71Y | – | – | 0.0436 | – | – | 0.0844 | 0.0554 | 0.0694 | – |
| V78T | – | – | 0.0409 | – | 0.0554 | – | – | 0.0564 | 0.0819 |
| M83V | – | – | – | – | 0.0549 | – | – | 0.0666 | – |
| F101Y | – | 0.0508 | 0.0555 | – | – | – | – | 0.0636 | – |
| T115V | 0.0521 | 0.0747 | – | – | – | – | – | 0.0608 | – |
| M122G | – | 0.071 | – | – | – | – | – | 0.0786 | – |
| I139E | – | 0.0697 | 0.0634 | – | – | – | 0.0599 | 0.0625 | – |
| I139L | 0.0657 | 0.0751 | – | 0.0907 | 0.0752 | – | – | 0.0692 | – |

| Variant | area with substrate ENLYFQP | area with substrate ENLYFQT | area with substrate ENLYFQV | area with substrate ENLYFQF | area with substrate ENLYFQW | area with substrate ENLYFQY | area with substrate ENLYFQE | area with substrate ENLYFQD | area with substrate ENLYFQQ |
| --- | --- | --- | --- | --- | --- | --- | --- | --- | --- |
| H143M | 0.0656 | 0.0638 | – | 0.0258 | – | 0.0554 | – | 0.0646 | 0.0805 |
| V157I | – | – | – | – | 0.0564 | – | – | 0.0653 | – |
| T159R | – | 0.0672 | – | 0.108 | 0.0544 | – | – | 0.0811 | – |
| I164K | – | – | – | 0.0492 | – | – | – | 0.0592 | – |
| T174V | 0.0473 | 0.0615 | – | – | 0.0634 | 0.0531 | – | 0.074 | – |
| N178F | – | 0.147 | 0.0766 | – | – | – | – | 0.164 | – |
| N178V | 0.0617 | – | 0.0496 | – | – | – | – | 0.0575 | – |
| E189W | 0.0353 | 0.0679 | 0.0641 | 0.0686 | 0.0654 | – | – | 0.0764 | – |
| N193R | – | – | – | – | – | – | – | 0.0544 | – |
| R204A | – | – | – | – | – | – | – | 0.0755 | 0.0501 |
| F218T | – | – | – | – | – | – | – | 0.0678 | – |
| P225S | – | 0.0568 | 0.0569 | – | 0.0583 | – | – | 0.0756 | – |
| F226S | 0.0309 | 0.076 | 0.0716 | – | 0.0685 | – | – | 0.0807 | 0.0788 |
| L235I | 0.0669 | 0.0785 | – | – | 0.0655 | – | – | 0.0678 | – |
| L235N | 0.0371 | – | 0.0671 | – | – | – | – | 0.0855 | – |
| K66C | 0.0562 | – | 0.0617 | – | – | – | 0.0659 | – | – |
| P93N | – | – | – | – | – | 0.0733 | 0.0509 | – | – |
| N116M | 0.073 | – | 0.0623 | – | – | – | 0.0726 | – | – |
